The RNAGym collection of RNA variant scans (doi:10.1093/nar/gkz1192)
Read counts are not given, so values of variants with three or more changes are uncertain.

B1: CPEB3 Ribozyme (parent)
chain: UAACAGGGGGCCACAGCAGAAGCGUUCACGUCGCAGCCCCUGUCAGAUUCUGGUGAAUCUGCGAAUUCUGCUGUAUAUCUC

Variants of: B1
Experiment: self-cleavage, relative activity (ratio to wild type); higher = more cleavage; in vitro, sequencing
Procedure, shortened: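 Barcoded CPEB3 ribozyme mutants, produced by rounds of error-prone PCR, self-cleaved while being transcribed with T7 RNA polymerase for 5 hours at 37°C and during a subsequent 15 min DNase I step before EDTA was added. Sequencing of template-switched cDNA on Illumina gave cleaved and total reads, and DNA sequencing assigned barcodes to variants. Each variant's relative activity is its cleaved/total read fraction divided by the unmutated ribozyme's fraction, averaged across three batches. A variant needed a minimum of 5 reads.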

Variant	self-cleavage
UAACAGGGGGCCACUGCAGAAGCGUUCACGUCGCAGCCCCUGCCAGAUUCUGGUGAAUCUGUGAAUUCUGCUGUAUAUCUC [A15U U43C C62U]	0.24
UAACAGGGGGCCACUGCAGAAGCGUUCACGUCGCAGCCCCUGUCAGAUUCCGGAGAAUCUGCGAAUUCUGCUGUAUAUCUC [A15U U51C U54A]	0.68
UAACAGGGGGCCACUGCAGAAGCGUUCACGUCGCAGCCCCCGUCGGAUUCUGGUGAGUCUGCGGAUUCUGCUGUAUAUCUC [A15U U41C A45G A57G A64G]	0.3
UAACAGGGGGCCACUGCAGAAGCGUUCACGUCGCAGCCCCUGCCAGAUUCUGGUGAAUCUGCGAAUUCUGCCGUAUAUCUC [A15U U43C U72C]	0.73
UAACAGGGGGCCACUGCAGAAGCGUUCACGUCGCAGCCCCUGCCAGAUUCUGGUGAAUCUGCGAAUUCUGCAGUAUAUCUC [A15U U43C U72A]	0.51
UAACAGGGGGCCACUGCAGAAGCGUUCACGUCGCAGCCCCCGUCAGAUUCUGGUGAAUCUGCGAAUCCUGCUGUAUACCUC [A15U U41C U67C U78C]	0.15
UAACAGGGGGCCACUGCAGAAGCGUUCACGCCGCAGCCCCUGUCAGAUUCUGGUGAAUCUGCGGAUUCUGCUGUAAAUCUC [A15U U31C A64G U76A]	0
UAACAGGGGGCCACUGCAGAAGCGUUCACGUCGCAGCCCCCGUCAGAUUCUGGUGAAUCUGCUAAUUCUGCUGUAUAUCUC [A15U U41C G63U]	1.14
UAACAGGGGGCCACUGCAGAAGCGUUCACGUCGCAGCCCCUGUCAGAUUCAGGUGAAUCUGCGAAUUCUGCUGUAUAUCCC [A15U U51A U80C]	0.75
UAACAGGGGGCCACUGCAGAAGCGUUCACGUCGCAGCCCCCGUCAGAUUCUGGUGAAUCUGCGAAUACUGCCGCAUAUCUC [A15U U41C U67A U72C U74C]	0.25
UAACAGGGGGCCACUGCAGAAGCGUUCACGUCGCAGCCCCCGUCAGAUUCUGGUGAAUCUGCGAAUCCAGCUGUAUAUCUC [A15U U41C U67C U69A]	0.2
UAACAGGGGGCCACUGCAGAAGCGUUCACGUCGCAGCCCCAGUCAGAUUCUGGUGAAUCCGCGUAUUCUGCCGUAUACCUC [A15U U41A U60C A64U U72C U78C]	0.16
UAACAGGGGGCCACUGCAGAAGCGUUCACGGCGCAGCCCCUGUCAGAUUCAGGCGAAUCUGCGAAUUCUGCUGUAUAUCUC [A15U U31G U51A U54C]	0.61
UAACAGGGGGCCACUGCAGAAGCGUUCACGUCGCAGCCCCAGUCAGAUUCUGGUGAAUCUGCGAAUUCUGCGGCAUAUCUC [A15U U41A U72G U74C]	0.05
UAACAGGGGGCCACUGCAGAAGCGUUCACGUCGCAGCCCCAGUCGGACUCUGGUGAAUCUGCGAAUUCAGCUGUAUAUCUC [A15U U41A A45G U48C U69A]	0.08
UAACAGGGGGCCACUGCAGAAGCGUUCACGUCGCAGCCCCAGCCAGAUUCUGGUGAAUCUGCGAAUUCUGCUGUAUAUCUC [A15U U41A U43C]	0.07
UAACAGGGGGCCACUGCAGAAGCGUUCACGUCGCAGCCCCAGACAGAUUCUGGUGAAUCUGCGAAUUCUGCUGUAUAUCUC [A15U U41A U43A]	0.19

Variant	self-cleavage
UAACAGGGGGCCACUGCAGAAGCGUUCACGUCGCAGCCCCAGUCAGAUUCUGGUGUAUCUGCGAAUUCUGCUGUAUAUCUC [A15U U41A A56U]	0.17
UAACAGGGGGCCACUGCAGAAGCGUUCACGUCGCAGCCCCUGUCAGACUCUGGUGAAUCCGCGAAUUCUGCUGUAUAUCUC [A15U U48C U60C]	0.11
UAACAGGGGGCCACUGCAGAAGCGUUCACGUCGCAGCCCCUGCCAGGUUCUGGUGAACCUGCGAAUCCCGUUGUAUAUCUC [A15U U43C A47G U58C U67C U69C C71U]	0.39
UAACAGGGGGCCACUGCAGAAGCGUUCACGUCGCAGCCCCUGUCAGAUUCAGGUGAUUCUGCGAAUUCUGCUGUAUAUCUC [A15U U51A A57U]	0.19
UAACAGGGGGCCACUGCAGAAGCGUUCACGUCGCAGCCCCCGUCAGAUCCUGGUGUAUCUGCGAAUUCUGCUGUAUAUCUC [A15U U41C U49C A56U]	0.17
UAACAGGGGGCCACUGCAGAAGCGUUCACGUCGCAGCCCCAGUCAGAUUCUGGUGAAUCUGCGAAUUCUGCUGUAUAUCCC [A15U U41A U80C]	0.19
UAACAGGGGGCCACUGCAGAAGCGUUCACGUCGCAGCCCCAGUCAGAUUCUGGUGAAUCUGCGAAUUCUGCUGUAUAUCAC [A15U U41A U80A]	0.13
UAACAGGGGGCCACUGCAGAAGCGUUCACGUCGCAGCCCCCGCCAGAUUCUGGUGAAUCUGCGAAUUCUACUGUAUAUCUC [A15U U41C U43C G70A]	0.4
UAACAGGGGGCCACUGCAGAAGCGUUCACGUCGCAGCCCCUGUCAGAUUCCGGUGAAUCUGCGAUUUCUGCUGUAUAUCUC [A15U U51C A65U]	0.21
UAACAGGGGGCCACUGCAGAAGCGUUCACGUCGCAGCCCCUGCCAGAUUCUGACGAAUCUGCGAAUUCCGCUGUAUAUCUC [A15U U43C G53A U54C U69C]	0.17
UAACAGGGGGCCACUGCAGAAGCGUUCACGUCGCAGCCCCUGUCAGAUUCAGGUGAAUCUGCUAAUUCUGCCGUGUAUCCC [A15U U51A G63U U72C A75G U80C]	0.86
UAACAGGGGGCCACUGCAGAAGCGUUCACGUCGCAGCCCCUGUCAGAUACAGGCGAAUCUGCGAAUUCUGCUGCAUAUCUC [A15U U49A U51A U54C U74C]	0.46
UAACAGGGGGCCACUGCAGAAGCGUUCACGUCGCAGCCCCUGCCAGAUCCUGGCGAAUCUGCGAACUCUGCUGUAUAUCCC [A15U U43C U49C U54C U66C U80C]	0.11
UAACAGGGGGCCACUGCAGAAGCGUUCACGUCGCAGCCCCAGUCAGAUUCUGGUGAAUCUGCGAAUUCUGCUGCAUAUCUC [A15U U41A U74C]	0.24
UAACAGGGGGCCACUGCAGAAGCGUUCACGCCGCAGCCCCUGUCAGAUUCUGGUGAAUCAGCGAAUUCUGCUGUAUAUCCC [A15U U31C U60A U80C]	0.21
UAACAGGGGGCCACUGCAGAAGCGUUCACGCCGCGGCCCCAGUCAGAUUCUGGGGAAUCUGCGAAUUCUGCUGUAUAUCUC [A15U U31C A35G U41A U54G]	0.18
UAACAGGGGGCCACUGCAGAAGCGUUCACGUCGCAGCCCCUGUCAGAUCCUGGUGAAUCUGCGAAUACUGCUGUAUAUCUC [A15U U49C U67A]	0.1
